“And” between values parts separate entries of the source, which are not always exact repeats. Identical values can stand only once. Inconclusive results, whose numbers are uncertain, are shown with a selection of clear calls. A potency beside an inconclusive call is a rough fit, not a confirmed value. The source made the active and inactive calls. Unless noted, calls come from the whole dose curve.
Tests used:
[1] = qHTS assay to identify small molecule agonists of the NFkB signaling pathway - cell viability counter screen (AID 1159515); note: nearly all actives have a fitted effect of over 55% in size
How it was run: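 Luminescence from CellTiter-Glo (30 min, room temperature) gives viability, measured in the same wells as the beta-lactamase reporter read. Cells were NFkB-bla ME-180, 2,000 per well, treated 5 hr with compounds.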

[2] = qHTS assay to identify small molecule agonists of the endoplasmic reticulum stress response signaling pathway (AID 1159516; active = well fitted activation curve with a large enough effect in the signal ratio in the repeat runs, not every such curve was filed as active; inconclusive = weak or mixed curves, or effect the other way; the % refers to the signal ratio; for activation: % is set by controls: 0 for no effect and ±100 for the full control effect); details: ESRE-bla HeLa, ER stress beta-lactamase reporter, 5 h; activation: at 61 µM (top of the series) unless noted
How it was run: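 Read-out is beta-lactamase cleavage of a FRET substrate (405 nm excitation; 460 and 530 nm emissions) in ESRE-bla HeLa cells after a 5 hr compound exposure at 37 C. Substrate incubation ran 2 hr at room temperature.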

[3] = qHTS assay to identify small molecule agonists of the AP-1 signaling pathway (AID 1159526); details: ME-180 (cervical carcinoma) AP-1-bla reporter, beta-lactamase FRET ratio, 5 h; activation: at 76.8 µM (top of the series) unless noted; for activation: % is set by controls: 0 for no effect and ±100 for the full control effect
[4] = qHTS assay to identify small molecule agonists of the AP-1 signaling pathway - cell viability counter screen (AID 1159525); note: nearly all actives have a fitted effect of over 55% in size
How it was run: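 Luminescent ATP readout (Cell Titer Glo, 30 min RT), normalised to DMSO and tetra n-octyl ammonium bromide controls. Cells were ME-180 AP-1-bla in 0.5% dialyzed FBS Opti-MEM, with a 5 h, 37 °C compound exposure.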

[5] = qHTS assay to identify small molecule antagonists of the vitamin D receptor (VDR) signaling pathway - cell viability counter screen (AID 743225; active = well fitted curve in the direction sought with a large enough effect in the repeat runs; inconclusive = weak or mixed curves; inactive = no such curve, though single readings can be large; an effect the other way counts as inactive or inconclusive; note: nearly all actives have a fitted effect of over 50% in size; for viability change, negative = cytotoxic: % is set by controls: 0 for no effect and ±100 for the full control effect); details: VDR-bla HEK293T viability, CellTiter-Glo luminescence, 16 h; viability change, negative = cytotoxic: at 61 µM (top of the series) unless noted
How it was run: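 Cells (VDR-UAS-bla HEK 293T) are plated, rested 4 h at 37C, dosed with compound and 3 nM final 1-alpha,25-dihydroxy vitamin D3, and incubated 16 h. Viability is taken from CellTiter-Glo luminescence in the reporter wells.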

[6] = qHTS assay to identify small molecule antagonists of the retinoid-related orphan receptor gamma (ROR-gamma) signaling pathway - cell viability counter screen (AID 1159520; active = well fitted curve in the direction sought with a large enough effect in the repeat runs; inconclusive = weak or mixed curves; inactive = no such curve, though single readings can be large; an effect the other way counts as inactive or inconclusive; note: nearly all actives have a fitted effect of over 50% in size)
How it was run: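 Cytotoxicity was read from cellular ATP (CellTiter-Glo luminescence) after 16 hr at 37 C with 1 uM doxycycline induction. The inducer was added 2 hr after compound transfer to Tet-on ROR gamma CHO cells.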

[7] = biological target: Retinoic acid receptor RXR-alpha (Homo sapiens) (UniProt P19793); experiment: qHTS assay to identify small molecule agonists of the RXR signaling pathway (AID 1159527); details: HEK293T RXRa-UAS-bla, beta-lactamase ratio, 16 h; activation: at 76.8 µM (top of the series) unless noted; note: nearly all actives have a fitted effect of over 35% in size; for activation: % is set by controls: 0 for no effect and ±100 for the full control effect
How it was run: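 qHTS of the Tox21 10K library in GeneBLAzer RXR-alpha HEK 293T cells carrying a beta-lactamase reporter […]; 16 hr treatment, 9-cis retinoic acid as agonist control, FRET read-out.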

[8] = qHTS assay to identify small molecule agonists of the RXR signaling pathway - cell viability counter screen (AID 1159529; active = well fitted curve in the direction sought with a large enough effect in the repeat runs; inconclusive = weak or mixed curves; inactive = no such curve, though single readings can be large; an effect the other way counts as inactive or inconclusive; note: nearly all actives have a fitted effect of over 50% in size)
How it was run: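 Cell viability is measured by CellTiter-Glo luminescence, 30 min at room temperature, in wells already read for beta-lactamase. Engineered HEK 293T cells (RXR-alpha-UAS-bla) are dosed 16 hr at 37 C. Tetraoctyl ammonium bromide serves as positive control.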

[9] = qHTS assay to identify small molecule agonists of the endoplasmic reticulum stress response signaling pathway - cell viability counter screen (AID 1159517); note: nearly all actives have a fitted effect of over 50% in size
How it was run: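 HeLa cells carrying an ESRE-driven beta-lactamase reporter receive compound for 5 hr at 37 C. Cell viability is then gauged with CellTiter-Glo by luminescence, 30 min at room temperature.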

[10] = biological target: Nuclear receptor ROR-gamma (Homo sapiens) (UniProt P51449); experiment: qHTS assay to identify small molecule antagonists of the retinoid-related orphan receptor gamma (ROR-gamma) signaling pathway (AID 1159521; active = well fitted curve in the direction sought with a large enough effect in the repeat runs; inconclusive = weak or mixed curves; inactive = no such curve, though single readings can be large; an effect the other way counts as inactive or inconclusive; note: nearly all actives have a fitted effect of over 50% in size)
How it was run: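 RORγ antagonism is scored from reduced reporter luminescence in Tet-on CHO cells. Induction used 1 uM final doxycycline hyclate for 16 h at 37 C, following a 2 h compound exposure.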
Potency is the fitted concentration of half-maximal effect; tags give direction and shape of the fitted curve or compound fluorescence and quenching.

Sequence of UniProt P19793 (P19793 whole entry, looked up): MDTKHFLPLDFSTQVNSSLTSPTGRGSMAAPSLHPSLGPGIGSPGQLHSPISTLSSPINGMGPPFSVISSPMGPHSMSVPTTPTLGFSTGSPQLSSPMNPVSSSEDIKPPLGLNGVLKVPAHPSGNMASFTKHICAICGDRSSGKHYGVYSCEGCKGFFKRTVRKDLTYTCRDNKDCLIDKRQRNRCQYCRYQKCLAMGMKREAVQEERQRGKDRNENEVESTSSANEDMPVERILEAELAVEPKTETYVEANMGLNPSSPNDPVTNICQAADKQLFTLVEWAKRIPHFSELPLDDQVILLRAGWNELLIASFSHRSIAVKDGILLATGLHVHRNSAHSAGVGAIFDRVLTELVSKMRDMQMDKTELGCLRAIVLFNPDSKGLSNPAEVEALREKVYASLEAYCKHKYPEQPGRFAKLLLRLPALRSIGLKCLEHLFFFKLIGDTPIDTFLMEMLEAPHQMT

CCc1cccc(C)c1
Potency [1]: inconclusive: 22.2 µM [cytotoxic, single point]
Potency [2]: inconclusive: 0.0788 µM [rising, partial curve, poor fit]
activation [3]: inconclusive: -10.7%

COC(=O)/C=C/c1ccccc1
Potency [1]: inactive
Potency [2]: inactive
Potency [4]: inactive

CNS(=O)(=O)c1cc(C(=O)N2CCC(CCN3C4CCC3CC(n3c(C)nc5ccccc53)C4)(c3cccc(F)c3)CC2)c(Cl)cc1F (stereo not given)
Potency [5]: active: 13.8 µM
Potency [1]: active: 38.9 µM
Potency [2]: inconclusive: 1.38 µM [rising, full curve, poor fit]
Potency [6]: inactive
Potency [4]: active: 24.5 µM
Potency [7]: inconclusive: 4.9 µM [rising, partial curve]
Potency [8]: active: 6.16 µM

Cc1ccc(C(=O)c2cc(O)c(O)c([N+](=O)[O-])c2)cc1
Potency [5]: inconclusive: 43.6 µM [cytotoxic, single point] and inactive
Potency [1]: inconclusive: 43.6 µM [rising, partial curve]
activation [2]: inconclusive: -14.1%
Potency [9]: inconclusive: 23.9 µM [rising, partial curve, poor fit]

CCCCCCCC/C=C\CCCCCCCC(=O)OCCOC(=O)CCCCCCC/C=C\CCCCCCCC
Potency [1]: inconclusive: 71.8 µM [rising, partial curve, poor fit]
Potency [2]: inconclusive: 28.6 µM [falling, partial curve, poor fit]
Potency [10]: inactive

Cc1cc(C)cc(N)c1
Potency [5]: inactive
Potency [1]: inconclusive: 55.7 µM [rising, partial curve, poor fit]
Potency [2]: inconclusive: 7.86 µM [rising, partial curve]
Potency [10]: inactive
Potency [7]: inactive

Cc1cccc(O)c1C
Potency [1]: inconclusive: 21.7 µM [cytotoxic, single point]
Potency [2]: inconclusive: 25.3 µM [falling, partial curve, poor fit]
Potency [9]: inactive
Potency [7]: inactive

CN(C)c1nc(N(C)C)nc(N(C)C)n1
Potency [1]: inconclusive: 0.562 µM [cytotoxic, full curve]
Potency [2]: inactive
Potency [6]: inactive
Potency [10]: inactive
activation [3]: inconclusive: -15% [at 6.97 µM]
Potency [7]: inactive

COc1cc(C=C2CCC/C(=C\c3ccc(O)c(OC)c3)C2=O)ccc1O
Potency [5]: inconclusive: 26.8 µM [cytotoxic, single point]
Potency [1]: inconclusive: 26.8 µM [cytotoxic, single point]
Potency [2]: inconclusive: 13.4 µM [activator]
Potency [10]: inconclusive: 33.5 µM [inhibitor, single point]
Potency [4]: active: 26.8 µM
activation [3]: inconclusive: -13% [at 35.3 µM]
Potency [7]: inconclusive: 4.77 µM [full curve]
Potency [8]: inconclusive: 26.8 µM [cytotoxic, single point]

CN(C)c1ccc(N=NS(=O)(=O)O)cc1
Potency [5]: inconclusive: 0.231 µM [cytotoxic, full curve]
Potency [1]: inconclusive: 0.0012 µM [cytotoxic]
Potency [2]: inconclusive: 0.0219 µM [rising, full curve, poor fit]
Potency [6]: inconclusive: 7.7 µM [cytotoxic, partial curve, poor fit]
Potency [7]: inconclusive: 57.9 µM [activator, partial curve, poor fit]
Potency [8]: inconclusive: 54.9 µM [cytotoxic, partial curve, poor fit]

Oc1c(I)cc(Cl)c2cccnc12
Potency [5]: inconclusive: 4.36 µM [cytotoxic, partial curve, poor fit]
Potency [1]: inconclusive: 61.6 µM [cytotoxic, single point]
Potency [2]: inconclusive: 21.8 µM [activator]
Potency [6]: inconclusive: 54.4 µM [cytotoxic, partial curve] and inconclusive: 26.6 µM [cytotoxic, partial curve, poor fit]
Potency [10]: inconclusive: 29.8 µM [inhibitor, partial curve]
Potency [7]: inconclusive: 2.18 µM [full curve] and inconclusive: 8.49 µM [inhibitor, partial curve]
Potency [8]: active: 1.09 µM and inconclusive: 2.39 µM [cytotoxic, full curve, poor fit]

NNC(=O)c1cccc(C(=O)NN)c1
Potency [1]: inconclusive: 49 µM [rising, partial curve, poor fit]
Potency [2]: inactive
Potency [3]: inactive

C1CC(COCC2CO2)CCC1COCC1CO1 (stereo not given)
Potency [5]: inconclusive: 21.9 µM [rising, single point]
Potency [1]: inconclusive: 61.6 µM [rising, single point]
Potency [2]: inconclusive: 61.6 µM [rising, single point]
Potency [10]: inconclusive: 68.6 µM [inhibitor, single point]
activation [3]: inconclusive: -5.1%
Potency [7]: inconclusive: 27.5 µM [fluorescent, full curve]

Cc1ccc(Cl)c(Nc2ccccc2C(=O)O)c1Cl
Potency [1]: inconclusive: 26.8 µM [rising, partial curve, poor fit]
activation [2]: inconclusive: -10.4%
Potency [10]: inconclusive: 3.35 µM [inhibitor, single point]
activation [7]: inconclusive: -16.8% [at 35.3 µM]

CN(C/C=C/C#CC(C)(C)C)Cc1cccc2ccccc12
Potency [1]: active: 21.3 µM
Potency [2]: inconclusive: 2.39 µM [falling, full curve, poor fit]
Potency [6]: inconclusive: 33.5 µM [cytotoxic, partial curve, poor fit]
Potency [3]: inconclusive: 10.7 µM [activator, partial curve, poor fit]
activation [7]: inconclusive: -30.4% [at 35.3 µM]
Potency [8]: active: 7.56 µM

C[n+]1c2cc(N)ccc2cc2ccc(N)cc21 (tested in a mixture with another compound)
Potency [5]: inconclusive: 4.77 µM [cytotoxic, full curve]
Potency [1]: inconclusive: 23.9 µM [rising, partial curve, poor fit]
Potency [2]: inconclusive: 10.7 µM [rising, full curve]
Potency [6]: inconclusive: 33.5 µM [cytotoxic, single point]
Potency [10]: inconclusive: 33.5 µM [inhibitor, single point]
Potency [3]: inconclusive: 4.25 µM [activator, partial curve, poor fit]
Potency [7]: inconclusive: 7.56 µM [full curve]
Potency [8]: inconclusive: 10.7 µM [cytotoxic, single point]

CC(C)=CCC/C(C)=C/CC/C(C)=C/C(=O)OCC(=O)[C@@]1(O)CC[C@H]2[C@@H]3CCC4=CC(=O)C=C[C@]4(C)[C@H]3[C@@H](O)C[C@@]21C
Potency [5]: inconclusive: 16.9 µM [cytotoxic, partial curve, poor fit]
Potency [1]: inconclusive: 23.9 µM [cytotoxic, single point]
Potency [2]: inconclusive: 30.1 µM [falling, single point]
Potency [10]: active: 6.68 µM
activation [7]: inconclusive: -25.4% [at 35.3 µM]

CC1CCCCN1CCCOC(=O)c1ccc(OC2CCCCC2)cc1 (stereo not given)
Potency [5]: inconclusive: 4.77 µM [cytotoxic, single point]
Potency [1]: inconclusive: 26.8 µM [cytotoxic, single point]
Potency [2]: inactive
Potency [10]: active: 11.9 µM
Potency [3]: inconclusive: 19 µM [activator, partial curve]
Potency [7]: inconclusive: 10.7 µM [inhibitor, partial curve, poor fit]

COc1ccc(OC(F)(F)F)cc1CN[C@H]1CCCN[C@H]1c1ccccc1
Potency [1]: inconclusive: 43.6 µM [cytotoxic, partial curve]
Potency [2]: inconclusive: 0.0155 µM [falling, full curve, poor fit]
Potency [10]: inconclusive: 34.4 µM [inhibitor, partial curve, poor fit]
Potency [4]: inconclusive: 21.9 µM [cytotoxic, partial curve, poor fit]
Potency [3]: inconclusive: 3.89 µM [falling, partial curve, poor fit]
Potency [7]: inconclusive: 49 µM [inhibitor]
Potency [8]: inconclusive: 6.16 µM [cytotoxic, full curve]

Oc1c(I)cc(I)c2cccnc12
Potency [5]: inconclusive: 10.7 µM [cytotoxic, single point]
Potency [1]: inconclusive: 10.7 µM [rising, single point]
activation [2]: inconclusive: -11%
Potency [10]: inconclusive: 33.5 µM [inhibitor, single point]
Potency [4]: inconclusive: 6.01 µM [rising, full curve]
Potency [3]: inconclusive: 3.38 µM
activation [7]: inconclusive: -30.1% [at 35.3 µM]
Potency [8]: inconclusive: 2.39 µM [cytotoxic, full curve, poor fit]

CO[C@H]1C=CO[C@@]2(C)Oc3c(C)c(O)c4c(O)c(cc(O)c4c3C2=O)NC(=O)/C(C)=C\C=C/[C@H](C)[C@H](O)[C@@H](C)[C@@H](O)[C@@H](C)[C@H](OC(C)=O)[C@@H]1C
Potency [1]: inconclusive: 55.3 µM [cytotoxic, single point]
Potency [2]: inconclusive: 62.1 µM [inhibitor]
Potency [4]: active: 49.3 µM
Potency [3]: inconclusive: 24.7 µM [cytotoxic, partial curve]
Potency [7]: inconclusive: 34.9 µM [cytotoxic, partial curve]

CC(C)c1nc(CN(C)C(=O)N[C@H](C(=O)N[C@@H](Cc2ccccc2)C[C@H](O)[C@H](Cc2ccccc2)NC(=O)OCc2cncs2)C(C)C)cs1
Potency [5]: inconclusive: 30.1 µM [cytotoxic, single point]
Potency [1]: inconclusive: 9.52 µM [cytotoxic, full curve]
Potency [2]: inconclusive: 26.8 µM [rising, partial curve, poor fit]
Potency [9]: active: 15.1 µM
Potency [7]: inconclusive: 21.3 µM [rising, partial curve]
Potency [8]: active: 9.52 µM

Reference: PubChem BioAssay (Tox21)
